Here are results for 45 compounds from paper PMC4336329 (PLoS ONE, 2015).

Out of some 310,000 compounds screened, about 2,200 (0.71%) showed an effect of 50% or more. Effects have a minus sign here. Some of the results follow.

For this experiment, the target named is human ether-à-go-go-related gene (hERG) potassium channel (human, UniProt Q12809). In words: primary screen, population patch clamp on CHO cells stably expressing hERG.
Chain of human ether-à-go-go-related gene (hERG) potassium channel (Q12809 whole entry, looked up): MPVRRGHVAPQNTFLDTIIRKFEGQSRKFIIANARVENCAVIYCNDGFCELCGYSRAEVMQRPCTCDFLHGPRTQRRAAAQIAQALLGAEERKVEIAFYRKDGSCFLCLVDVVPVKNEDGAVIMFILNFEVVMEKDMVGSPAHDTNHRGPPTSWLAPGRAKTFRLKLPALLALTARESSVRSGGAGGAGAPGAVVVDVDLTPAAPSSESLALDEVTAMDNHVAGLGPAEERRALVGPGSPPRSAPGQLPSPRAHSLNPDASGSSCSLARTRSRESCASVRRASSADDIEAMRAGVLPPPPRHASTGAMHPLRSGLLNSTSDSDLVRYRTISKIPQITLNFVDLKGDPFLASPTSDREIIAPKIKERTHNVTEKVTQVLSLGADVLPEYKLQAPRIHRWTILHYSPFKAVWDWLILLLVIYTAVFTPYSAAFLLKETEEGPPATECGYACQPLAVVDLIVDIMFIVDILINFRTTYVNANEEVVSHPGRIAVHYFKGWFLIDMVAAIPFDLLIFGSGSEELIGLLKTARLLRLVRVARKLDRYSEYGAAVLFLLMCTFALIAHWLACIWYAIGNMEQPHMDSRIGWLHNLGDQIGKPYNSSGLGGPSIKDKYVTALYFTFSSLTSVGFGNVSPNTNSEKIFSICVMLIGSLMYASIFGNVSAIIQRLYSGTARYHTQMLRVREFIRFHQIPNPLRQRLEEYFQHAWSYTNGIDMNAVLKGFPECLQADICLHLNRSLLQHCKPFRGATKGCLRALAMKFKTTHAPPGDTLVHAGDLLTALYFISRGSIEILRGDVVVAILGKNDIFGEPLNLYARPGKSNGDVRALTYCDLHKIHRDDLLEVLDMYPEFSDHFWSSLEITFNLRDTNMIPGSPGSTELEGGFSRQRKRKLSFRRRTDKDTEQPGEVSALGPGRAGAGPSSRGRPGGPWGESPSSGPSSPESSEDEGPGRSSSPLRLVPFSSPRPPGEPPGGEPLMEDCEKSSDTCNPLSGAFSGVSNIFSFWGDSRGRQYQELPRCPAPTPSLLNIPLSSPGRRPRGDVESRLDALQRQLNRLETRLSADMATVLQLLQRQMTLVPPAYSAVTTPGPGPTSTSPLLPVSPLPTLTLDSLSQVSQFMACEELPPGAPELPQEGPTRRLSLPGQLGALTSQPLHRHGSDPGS
Regarding `CCOC(=O)CC(=O)COc1nc2cc3c(nc2o1)CCCC3`, the “hERG current change (%, negative = inhibition) at 1uM” value is given as -0.38%. To `CCOc1ccc(NC(=O)/C=C/c2ccccc2)c([N+](=O)[O-])c1` belongs 7.61%; to `CCCN1C(=O)C(O)(C2COC(C)(C)CC2=O)c2ccccc21` (stereo not drawn), 6.61%. Under `Cc1ccc(S(=O)(=O)Oc2ccc(/C=N/N=C3/NC(=O)C(CC(=O)O)S3)cc2)cc1[N+](=O)[O-]` (stereo not drawn) stands 22.9%. Under `Cc1c(Cl)cccc1-n1nnnc1-c1cccs1` stands 2.84%; under `C=CCn1c(O)c(C(C)=NCCCN(C)C)c(=O)[nH]c1=O`, 10.3%. `CCOC(=O)C1(Cc2cccc(Cl)c2)CCCN(C(=O)c2ccc(COC)s2)C1` (stereo not drawn): the “hERG current change (%, negative = inhibition) at 1uM” value was -2.58%. Take `Cc1nccn1Cc1cccc2ccccc12`: the “hERG current change (%, negative = inhibition) at 1uM” value is on record as 11.4%. To `N#Cc1ccc(COC(=O)c2cnc(Cl)c(Cl)c2)cc1` belongs 13.9%. To `Cc1ccc(NC(=O)NCCCN2CCCC2=O)cc1` belongs 2.18%; to `Cc1ccc(NC(=O)CSCC(=O)Nc2cccc3ncccc23)cc1`, 4.18%; to `COc1ccccc1NC(=O)CSCc1ccc([N+](=O)[O-])cc1`, 1.99%. To `O=C(/C=C/NCC(=O)c1ccccc1)c1ccc(Br)cc1` belongs 15.8%; to `O=C(NNC(=O)C1CC=CCC1)c1ccccc1Br` (stereo not drawn), 10.4%. As to `CN(C)C(CNC(=O)c1ccc2[nH]c(=O)c(=O)[nH]c2c1)c1ccco1` (stereo not drawn), the “hERG current change (%, negative = inhibition) at 1uM” value came to 0.262%. Take `CC1Cc2ccccc2N1S(=O)(=O)c1cccc(C(=O)c2nccn2C)c1` (stereo not drawn): the “hERG current change (%, negative = inhibition) at 1uM” value is recorded as 6.7%.

Consider `Cc1n[nH]c(=O)nc1N/N=C/c1ccco1`, for which the “hERG current change (%, negative = inhibition) at 1uM” value is recorded as 12%.

Take `O=C(O)CSCC(=O)NCc1c(Cl)cccc1Oc1ccccc1`: the “hERG current change (%, negative = inhibition) at 1uM” value was 12.7%. Consider `O=C(CNC1CCCCCC1)Nc1ccc(N2CCCC2)cc1.O=C(O)C(=O)O`, for which the “hERG current change (%, negative = inhibition) at 1uM” value worked out at 6.87%. To `c1ccc(C2Nc3ccccc3-c3nc4ccccc4n32)nc1` (stereo not drawn) belongs 15.1%; to `O=C1c2cccc3cccc(c23)C(=O)N1CCCN(C(=O)c1cccs1)c1cccc(F)c1`, 8.98%. To `COc1cc2ncnc(NCc3cc(F)ccc3F)c2cc1OC` belongs -0.534%. To `Cc1cccc(C)c1NC(=O)Cn1nc(-c2ccc(Cl)s2)ccc1=O` belongs 12.1%.

`COc1ccccc1CNC(=O)Nc1cccs1`: the “hERG current change (%, negative = inhibition) at 1uM” value is 12.1%. Under `Cc1ccc(NC(=O)CN(C)C(=O)c2cccc(Br)c2)cc1` stands 4.61%; under `Cc1ccc(CSc2nnc(-c3cnccn3)n2C)cc1`, 14.7%; under `CC1CCc2c(sc3ncnc(NCCCOC(C)C)c23)C1.Cl` (stereo not drawn), 2.07%. Under `Cc1ccc(Cl)cc1N1CCN(C(=O)Cc2c(C(=O)O)[nH]c3ccc(Cl)cc23)CC1` stands 22.4%; under `Cc1ccc(-c2cc(N)n3nc(-c4ccc(C)cc4)cc3n2)cc1`, 13.2%; under `C=CCOC(=O)C1=C(C)Nc2[nH]c(=O)[nH]c(=O)c2C1c1ccccc1` (stereo not drawn), 13.1%. Take `COc1ccccc1C(=O)ON=C1c2ccccc2-c2ccccc21`: the “hERG current change (%, negative = inhibition) at 1uM” value came to 10.5%. To `Cc1ccc2oc(=O)c3cc(C(=O)NCCN4CCN(C)CC4)sc3c2c1` belongs 2.58%; to `Cl.OC(COc1ccc2c(c1)OCO2)CN1CCCC1` (stereo not drawn), 5.2%; to `COc1ccc(-n2c(COc3cccc(C)c3)nnc2SCC(=O)NCc2ccco2)cc1`, -5.41%.

With `CC1CN(c2nc(-c3ccccc3)nnc2-c2ccccc2)CC(C)O1` (stereo not drawn), the “hERG current change (%, negative = inhibition) at 1uM” value stood at 5.05%. In the case of `CCc1nn(CC(=O)NCCCc2ccccc2)c(=O)c2cc3c(OC)cccc3n12`, the “hERG current change (%, negative = inhibition) at 1uM” value is on record as 12.4%. To `CC(C)c1nc2cc(Cl)ccc2n(Cc2ccccc2)c1=O` belongs 14.7%; to `CN(C)CCCNC(=O)Cc1ccc(Br)cc1`, 7.19%. Under `O=[N+]([O-])c1c(NCCO)cc(N2CCC3(CC2)OCCO3)c2nonc12` stands -4.1%; under `Cc1ccc(CNC(=O)C(=O)NCC2OCCN2S(=O)(=O)c2ccc3c(c2)OCCO3)cc1` (stereo not drawn), 8.88%. As for `CCc1cc(C(=O)O)c(NC(=O)c2cc(OC)c(OC)c(OC)c2)s1`, the “hERG current change (%, negative = inhibition) at 1uM” value was determined as 16.9%.

Regarding `O=C1NC(=O)/C(=C\c2ccc(Br)o2)S1`, the “hERG current change (%, negative = inhibition) at 1uM” value was 11.2%. Under `CC(C(=O)NCCCc1ccccc1)c1ccc([N+](=O)[O-])cc1` (stereo not drawn) stands -8.85%.

As to `CN(C)C(=O)C[n+]1ccc(/C=N/O)cc1`, the “hERG current change (%, negative = inhibition) at 1uM” value is reported as 9.82%.

For `O=C(CN1CCN(S(=O)(=O)/C=C/c2ccccc2)CC1)NC(=O)NCc1ccco1`, the “hERG current change (%, negative = inhibition) at 1uM” value is on record as -23.8%.
